# Columns and labels:
# [1] = target: human Argonaute2 (recombinant AGO2) (human, UniProt Q9UKV8); experiment: SEC
# [2] = target: human Argonaute4 (recombinant AGO4) (human, UniProt Q9HCK5); experiment: SEC
Binder,binding result [1],binding result [2]
SUMO-fused TNRC6B V617-I636 fragment K629A (domain or fragment) not shown,binds,binds
SUMO-fused TNRC6B V617-I636 fragment Q625E (domain or fragment) not shown,binds,binds

# From paper PMC6707842 (Molecular cell, 2019)
